No constants are given. Whether binding was seen depends on the method and setting. For some assays here: Binding seen in cells or lysates may run through a third protein. Some entries that bind do so weakly or less than the wild type.

The chains behind the UniProt entries cited, without tags or fusion partners. Where a name states a change or a piece, a line headed by the entry shows the natural chain unless it says otherwise. A line that says so, or that is headed by a name, gives the form on record, which may keep a tag or linker.
UniProt P52294: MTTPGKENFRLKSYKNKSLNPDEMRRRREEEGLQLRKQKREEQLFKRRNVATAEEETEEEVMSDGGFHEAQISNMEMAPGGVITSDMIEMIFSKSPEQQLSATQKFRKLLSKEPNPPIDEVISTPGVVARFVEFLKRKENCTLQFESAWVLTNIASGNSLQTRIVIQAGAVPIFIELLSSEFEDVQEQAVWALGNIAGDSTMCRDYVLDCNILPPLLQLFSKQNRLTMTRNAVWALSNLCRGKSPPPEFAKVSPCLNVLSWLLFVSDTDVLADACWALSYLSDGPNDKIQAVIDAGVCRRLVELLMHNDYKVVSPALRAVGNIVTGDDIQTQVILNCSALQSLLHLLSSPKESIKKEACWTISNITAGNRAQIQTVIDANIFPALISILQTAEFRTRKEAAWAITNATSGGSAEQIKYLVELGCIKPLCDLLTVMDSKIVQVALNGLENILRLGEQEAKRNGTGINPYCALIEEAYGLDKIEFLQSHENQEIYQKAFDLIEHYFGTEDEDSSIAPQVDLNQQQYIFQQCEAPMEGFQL
UniProt Q14839: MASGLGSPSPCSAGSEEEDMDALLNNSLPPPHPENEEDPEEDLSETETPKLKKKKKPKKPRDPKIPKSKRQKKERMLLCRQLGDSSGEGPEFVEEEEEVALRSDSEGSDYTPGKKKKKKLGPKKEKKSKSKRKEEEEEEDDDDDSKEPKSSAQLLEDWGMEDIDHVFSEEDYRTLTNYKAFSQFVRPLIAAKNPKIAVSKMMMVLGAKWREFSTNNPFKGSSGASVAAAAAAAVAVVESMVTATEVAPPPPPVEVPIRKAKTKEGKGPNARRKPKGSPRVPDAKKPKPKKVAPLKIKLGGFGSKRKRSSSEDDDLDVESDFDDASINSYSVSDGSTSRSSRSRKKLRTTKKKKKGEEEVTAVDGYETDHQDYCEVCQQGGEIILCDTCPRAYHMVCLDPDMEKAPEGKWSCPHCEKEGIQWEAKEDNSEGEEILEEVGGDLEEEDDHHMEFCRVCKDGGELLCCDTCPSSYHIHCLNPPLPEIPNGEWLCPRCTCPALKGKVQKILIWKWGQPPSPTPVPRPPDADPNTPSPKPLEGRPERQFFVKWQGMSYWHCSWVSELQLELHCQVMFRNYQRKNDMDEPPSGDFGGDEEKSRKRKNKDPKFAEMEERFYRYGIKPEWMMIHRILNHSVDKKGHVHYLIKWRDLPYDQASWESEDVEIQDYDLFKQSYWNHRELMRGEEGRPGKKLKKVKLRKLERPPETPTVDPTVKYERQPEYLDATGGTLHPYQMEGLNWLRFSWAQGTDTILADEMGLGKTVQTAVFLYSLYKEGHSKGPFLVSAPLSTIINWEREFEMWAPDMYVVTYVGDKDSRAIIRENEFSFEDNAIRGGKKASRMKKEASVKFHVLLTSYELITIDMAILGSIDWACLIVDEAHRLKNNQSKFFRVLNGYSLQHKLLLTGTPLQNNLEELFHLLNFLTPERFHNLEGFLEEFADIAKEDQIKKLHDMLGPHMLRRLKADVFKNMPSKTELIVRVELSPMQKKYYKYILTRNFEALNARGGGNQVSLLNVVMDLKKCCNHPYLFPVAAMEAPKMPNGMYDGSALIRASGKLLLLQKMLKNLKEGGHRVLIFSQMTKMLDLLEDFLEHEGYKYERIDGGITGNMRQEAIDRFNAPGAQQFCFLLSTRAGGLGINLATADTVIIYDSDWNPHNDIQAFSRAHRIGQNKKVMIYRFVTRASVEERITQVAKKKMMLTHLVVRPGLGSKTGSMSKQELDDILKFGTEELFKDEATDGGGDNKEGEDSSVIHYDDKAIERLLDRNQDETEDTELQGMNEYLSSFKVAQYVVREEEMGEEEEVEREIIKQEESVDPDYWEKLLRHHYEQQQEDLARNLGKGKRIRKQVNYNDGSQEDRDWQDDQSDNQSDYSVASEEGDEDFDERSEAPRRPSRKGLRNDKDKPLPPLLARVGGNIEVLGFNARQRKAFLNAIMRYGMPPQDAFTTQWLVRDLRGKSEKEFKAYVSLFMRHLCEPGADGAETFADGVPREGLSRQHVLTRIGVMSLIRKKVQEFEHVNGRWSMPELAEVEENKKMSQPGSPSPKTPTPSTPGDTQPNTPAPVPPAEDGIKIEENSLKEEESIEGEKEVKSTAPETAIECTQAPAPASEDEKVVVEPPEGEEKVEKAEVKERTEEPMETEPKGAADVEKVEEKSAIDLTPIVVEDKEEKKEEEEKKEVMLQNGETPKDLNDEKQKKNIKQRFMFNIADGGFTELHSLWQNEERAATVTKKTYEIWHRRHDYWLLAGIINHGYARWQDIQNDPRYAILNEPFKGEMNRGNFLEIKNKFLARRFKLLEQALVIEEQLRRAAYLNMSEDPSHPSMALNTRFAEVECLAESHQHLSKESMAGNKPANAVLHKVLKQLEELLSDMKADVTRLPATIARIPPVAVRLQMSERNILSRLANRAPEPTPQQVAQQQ
CHD4-C-Flag aa 304–307 Ala (Q14839, form named): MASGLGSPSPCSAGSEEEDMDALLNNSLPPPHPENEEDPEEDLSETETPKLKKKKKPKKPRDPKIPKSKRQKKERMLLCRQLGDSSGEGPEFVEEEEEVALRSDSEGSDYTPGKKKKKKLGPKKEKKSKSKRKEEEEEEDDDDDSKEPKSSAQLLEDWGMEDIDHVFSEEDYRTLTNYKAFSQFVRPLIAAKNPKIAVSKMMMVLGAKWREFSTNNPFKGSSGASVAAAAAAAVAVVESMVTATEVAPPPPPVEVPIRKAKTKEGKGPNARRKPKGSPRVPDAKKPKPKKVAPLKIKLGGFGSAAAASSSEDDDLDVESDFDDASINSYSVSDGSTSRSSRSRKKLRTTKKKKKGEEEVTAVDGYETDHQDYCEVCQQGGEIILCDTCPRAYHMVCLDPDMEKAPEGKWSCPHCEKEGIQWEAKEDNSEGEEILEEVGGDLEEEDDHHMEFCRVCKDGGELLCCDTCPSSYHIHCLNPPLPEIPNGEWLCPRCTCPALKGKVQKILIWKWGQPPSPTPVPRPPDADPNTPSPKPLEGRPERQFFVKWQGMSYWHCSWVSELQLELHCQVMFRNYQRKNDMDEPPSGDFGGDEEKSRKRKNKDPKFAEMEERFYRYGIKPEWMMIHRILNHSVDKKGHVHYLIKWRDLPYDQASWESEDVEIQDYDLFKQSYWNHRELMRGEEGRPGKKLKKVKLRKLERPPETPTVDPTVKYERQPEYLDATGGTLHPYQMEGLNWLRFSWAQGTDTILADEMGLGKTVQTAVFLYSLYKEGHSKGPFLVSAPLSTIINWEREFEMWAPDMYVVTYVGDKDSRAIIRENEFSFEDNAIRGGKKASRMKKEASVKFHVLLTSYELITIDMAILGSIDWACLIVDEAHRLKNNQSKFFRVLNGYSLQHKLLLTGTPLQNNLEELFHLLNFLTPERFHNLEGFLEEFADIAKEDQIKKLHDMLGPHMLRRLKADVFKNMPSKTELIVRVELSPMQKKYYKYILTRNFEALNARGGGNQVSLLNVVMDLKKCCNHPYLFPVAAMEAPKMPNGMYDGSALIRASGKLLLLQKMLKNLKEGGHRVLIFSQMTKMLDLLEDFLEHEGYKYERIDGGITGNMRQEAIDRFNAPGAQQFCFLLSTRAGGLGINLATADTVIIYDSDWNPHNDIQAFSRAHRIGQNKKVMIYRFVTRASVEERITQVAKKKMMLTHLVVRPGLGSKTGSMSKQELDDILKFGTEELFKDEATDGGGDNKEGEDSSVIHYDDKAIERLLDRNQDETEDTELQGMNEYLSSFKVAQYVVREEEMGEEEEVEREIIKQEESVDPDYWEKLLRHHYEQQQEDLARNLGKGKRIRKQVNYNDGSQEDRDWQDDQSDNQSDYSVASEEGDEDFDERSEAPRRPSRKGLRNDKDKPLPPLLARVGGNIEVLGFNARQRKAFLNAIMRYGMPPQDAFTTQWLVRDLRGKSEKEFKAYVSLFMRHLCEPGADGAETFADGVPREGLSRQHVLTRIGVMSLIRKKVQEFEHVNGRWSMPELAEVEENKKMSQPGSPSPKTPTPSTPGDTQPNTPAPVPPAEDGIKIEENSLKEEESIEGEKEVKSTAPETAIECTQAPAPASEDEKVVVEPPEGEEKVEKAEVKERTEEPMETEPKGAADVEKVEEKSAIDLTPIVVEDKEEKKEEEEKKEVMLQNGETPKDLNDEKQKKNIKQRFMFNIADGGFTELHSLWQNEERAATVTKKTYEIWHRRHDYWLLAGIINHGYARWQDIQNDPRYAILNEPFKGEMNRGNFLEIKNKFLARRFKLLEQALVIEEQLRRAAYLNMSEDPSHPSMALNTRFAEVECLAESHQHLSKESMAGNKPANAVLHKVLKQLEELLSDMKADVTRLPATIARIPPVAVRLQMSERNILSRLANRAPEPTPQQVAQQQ
CHD4-C-Flag Δ aa 2–149 (Q14839, form named): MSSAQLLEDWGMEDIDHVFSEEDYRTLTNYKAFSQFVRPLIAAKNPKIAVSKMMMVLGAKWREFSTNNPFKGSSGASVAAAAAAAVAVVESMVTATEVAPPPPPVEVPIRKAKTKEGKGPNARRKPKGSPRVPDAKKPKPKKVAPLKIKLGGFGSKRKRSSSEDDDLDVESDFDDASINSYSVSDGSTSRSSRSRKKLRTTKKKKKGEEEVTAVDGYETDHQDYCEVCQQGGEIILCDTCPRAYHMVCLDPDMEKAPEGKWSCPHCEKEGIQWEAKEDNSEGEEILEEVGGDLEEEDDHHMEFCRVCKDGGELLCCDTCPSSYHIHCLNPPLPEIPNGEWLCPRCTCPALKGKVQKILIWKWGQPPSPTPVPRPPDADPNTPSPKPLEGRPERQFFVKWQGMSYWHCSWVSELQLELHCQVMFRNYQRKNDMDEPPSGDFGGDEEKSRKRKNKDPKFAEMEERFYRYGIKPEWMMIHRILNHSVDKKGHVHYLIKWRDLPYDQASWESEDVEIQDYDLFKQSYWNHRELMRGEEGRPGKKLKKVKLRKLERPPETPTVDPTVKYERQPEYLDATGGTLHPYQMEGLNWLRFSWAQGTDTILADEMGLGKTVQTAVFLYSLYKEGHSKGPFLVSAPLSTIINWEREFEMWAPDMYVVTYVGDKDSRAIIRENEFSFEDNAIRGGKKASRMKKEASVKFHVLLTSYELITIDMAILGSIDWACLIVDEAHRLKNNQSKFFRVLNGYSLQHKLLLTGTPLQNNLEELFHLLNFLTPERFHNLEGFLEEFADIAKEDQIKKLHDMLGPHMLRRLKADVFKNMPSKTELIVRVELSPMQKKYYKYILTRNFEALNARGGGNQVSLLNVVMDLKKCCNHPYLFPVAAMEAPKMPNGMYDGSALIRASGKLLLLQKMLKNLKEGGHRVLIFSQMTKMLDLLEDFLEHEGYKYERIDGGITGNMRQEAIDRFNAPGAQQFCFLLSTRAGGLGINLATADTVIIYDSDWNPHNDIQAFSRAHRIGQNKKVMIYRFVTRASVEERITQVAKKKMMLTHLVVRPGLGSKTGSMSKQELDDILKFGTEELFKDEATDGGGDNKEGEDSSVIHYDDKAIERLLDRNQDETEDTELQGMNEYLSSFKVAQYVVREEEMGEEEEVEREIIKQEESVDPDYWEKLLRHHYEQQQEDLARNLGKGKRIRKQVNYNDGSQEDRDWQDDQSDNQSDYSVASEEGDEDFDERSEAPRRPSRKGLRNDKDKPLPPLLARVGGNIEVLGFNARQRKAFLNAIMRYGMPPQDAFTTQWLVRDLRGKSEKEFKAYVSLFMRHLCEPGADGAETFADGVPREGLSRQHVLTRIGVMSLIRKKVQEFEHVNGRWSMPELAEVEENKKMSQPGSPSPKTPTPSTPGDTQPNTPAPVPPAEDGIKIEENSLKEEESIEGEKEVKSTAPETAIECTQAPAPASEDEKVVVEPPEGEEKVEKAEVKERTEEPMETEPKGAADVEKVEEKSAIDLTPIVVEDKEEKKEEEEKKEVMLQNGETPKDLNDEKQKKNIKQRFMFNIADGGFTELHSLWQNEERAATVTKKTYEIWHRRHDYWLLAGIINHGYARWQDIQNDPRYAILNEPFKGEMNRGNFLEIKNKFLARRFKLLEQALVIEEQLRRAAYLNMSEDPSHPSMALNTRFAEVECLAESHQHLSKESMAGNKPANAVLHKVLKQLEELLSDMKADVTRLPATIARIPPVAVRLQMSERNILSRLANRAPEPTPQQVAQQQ

In one assay the target is GST–importin β1 (UniProt Q14974). In words: pull-down; GST or GST–importins (15 µg) immobilised on glutathione–Sepharose 4B, in the absence or presence of His-tagged importin-β or nucleoplasmin (1:1 molar with importins); 1.5 µg purified CHD4 protein added; 20 mM HEPES pH 7.5, 100 mM KOAc, 0.5 mM EGTA, 5 mM MgOAc, 250 mM sucrose, 4°C; western blot of bead fractions; both purified. (In western blotting, separated proteins are transferred to a membrane and probed.)

The target of a further assay is GST–importin α5 (UniProt P52294). The assay is described as above.
The target of assay [1] is C-terminal GFP-tagged CHD4 wild-type (human) (UniProt Q14839). In words: co-IP; GFP-Trap A on cytoplasmic extract of stably transfected HEK 293 cells, 24 h doxycycline; IP buffer with 150 mM KCl, one wash with 500 mM KCl; western blot.
Assay [2] shares this target. In words: co-IP; GFP-Trap A on nuclear extract of stably transfected HEK 293 cells, 24 h doxycycline; IP buffer with 150 mM NaCl, one wash with 500 mM NaCl; western blot.

Turning to “CHD4-C-Flag aa 304–307 Ala (from UniProt Q14839 1-1912) (enzyme)”, in the assay with GST–importin β1, the binding entry is recorded as “no binding (tested: 1.5 µg CHD4 protein)”.
Turning to “CHD4-C-Flag Δ aa 2–149 (from UniProt Q14839 1-1912) (enzyme)”, the binding entry in the assay with GST–importin β1 is on record as “no binding (tested: 1.5 µg CHD4 protein)”.
Regarding “CHD4-C-Flag Δ aa 217–360 (from UniProt Q14839 1-1912) (enzyme)”, the binding entry with GST–importin β1 is recorded as “no binding (tested: 1.5 µg CHD4 protein)”.
Turning to “CHD4-C-Flag, C-terminal Flag-tagged recombinant human CHD4 wild-type (from UniProt Q14839 1-1912) (enzyme)”, the results for the binding result in the assay with GST–importin β1 and in the assay with GST–importin α5 were “no binding (tested: 1.5 µg CHD4 protein)” and “binds”, respectively.
Turning to “HDAC1 (from UniProt Q13547 1-482) (enzyme)”, the binding result in assay [1] and in assay [2] was “binds” throughout.
In the case of “His-tagged nucleoplasmin (from UniProt P05221 1-200)”, the binding entry with GST–importin α5 is “binds”.
For the substance importin α5 (from UniProt P52294 1-538), in assay [2], the binding result is reported as “binds”.
Turning to importin α7 (from UniProt O60684 1-536), the binding result in assay [2] is reported as “binds”.
importin β1 (from UniProt Q14974 1-876): the binding entry in assay [2] is “no binding”.

These data come from PMC10112965.
